Inconclusive results, whose numbers are uncertain, are shown with a selection of clear calls. Potencies of inconclusive entries are left out as doubtful fits. Calls of active or inactive are those of the source. Calls come from the whole dose curve; as a rule, active = well fitted inhibition curve with a large enough effect; inconclusive = small, poorly fitted or top-dose-only effect; inactive = no such curve, though single readings can be large or run the other way.
Test: Primary qHTS for small molecule stabilizers of the endoplasmic reticulum resident proteome: Secreted ER Calcium Modulated Protein (SERCaMP) assay (AID 1508630)
Conditions: SH-SY5Y GLuc-SERCaMP (Gaussia luciferase released on ER calcium loss) secretion, thapsigargin, luminescence; series mostly up to 38.4 µM
Procedure, shortened: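 GLuc-SERCaMP-expressing SH-SY5Y cells, pretreated 16 h with compound, are challenged with thapsigargin to empty ER calcium stores; after 4 h, coelenterazine is added directly to the medium and luminescence is imaged.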
Potency is the fitted concentration of half-maximal effect; tags give direction and shape of the fitted curve.

Row | SMILES | Potency
1 | O=C(O)CCC/C=C\C[C@@H]1C(/C=C/[C@@H](O)COc2cccc(C(F)(F)F)c2)[C@@H](O)C[C@@H]1O (stereo not given in full) | inconclusive [inhibitor, full curve]
2 | COCCn1c(=O)c(C)nc2cnc(OCc3ccccc3)nc21 | inactive
3 | COc1ccc(Oc2ncc3nc(C)c(=O)n(-c4ccc(OC)cc4)c3n2)cc1 | inconclusive [inhibitor, single point]
4 | COc1ccc(C(=O)Nc2sc3c(c2C(N)=O)CCCC3)cc1OC | inactive
5 | CS(=O)(=O)N1CCC[C@@]2(CCN(Cc3ccc(C#N)cc3)C2)C1 | inactive

From PubChem BioAssay (NCATS)
